# Results from PubChem BioAssay AID488969 (Vanderbilt High Throughput Screening Facility, 2010).
# The full ranking holds about 110,000 compounds; the median of “z-score” is about -0.1, and the highest 2% start at about 2. Some of the results follow. The source made the active and inactive calls.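 The calls were made as follows: active = z-score in the third read window above 3 or below -3; inactive = the rest.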
# Biological target: Metabotropic glutamate receptor 8 (Rattus norvegicus) (UniProt P70579)
# Experiment: mGluR8 Gi/Go-coupled signaling modulation – cell-based, rat, thallium flux, HTS, primary screen (AID 488969)
# Settings: HEK293 rat mGluR8, GIRK (G protein-gated inwardly rectifying potassium channel) thallium flux, FluoZin2; at 10 µM; stronger effect = higher value; submaximal glutamate (EC20) added with thallium
# UniProt P70579, sequence (P70579 whole entry, looked up): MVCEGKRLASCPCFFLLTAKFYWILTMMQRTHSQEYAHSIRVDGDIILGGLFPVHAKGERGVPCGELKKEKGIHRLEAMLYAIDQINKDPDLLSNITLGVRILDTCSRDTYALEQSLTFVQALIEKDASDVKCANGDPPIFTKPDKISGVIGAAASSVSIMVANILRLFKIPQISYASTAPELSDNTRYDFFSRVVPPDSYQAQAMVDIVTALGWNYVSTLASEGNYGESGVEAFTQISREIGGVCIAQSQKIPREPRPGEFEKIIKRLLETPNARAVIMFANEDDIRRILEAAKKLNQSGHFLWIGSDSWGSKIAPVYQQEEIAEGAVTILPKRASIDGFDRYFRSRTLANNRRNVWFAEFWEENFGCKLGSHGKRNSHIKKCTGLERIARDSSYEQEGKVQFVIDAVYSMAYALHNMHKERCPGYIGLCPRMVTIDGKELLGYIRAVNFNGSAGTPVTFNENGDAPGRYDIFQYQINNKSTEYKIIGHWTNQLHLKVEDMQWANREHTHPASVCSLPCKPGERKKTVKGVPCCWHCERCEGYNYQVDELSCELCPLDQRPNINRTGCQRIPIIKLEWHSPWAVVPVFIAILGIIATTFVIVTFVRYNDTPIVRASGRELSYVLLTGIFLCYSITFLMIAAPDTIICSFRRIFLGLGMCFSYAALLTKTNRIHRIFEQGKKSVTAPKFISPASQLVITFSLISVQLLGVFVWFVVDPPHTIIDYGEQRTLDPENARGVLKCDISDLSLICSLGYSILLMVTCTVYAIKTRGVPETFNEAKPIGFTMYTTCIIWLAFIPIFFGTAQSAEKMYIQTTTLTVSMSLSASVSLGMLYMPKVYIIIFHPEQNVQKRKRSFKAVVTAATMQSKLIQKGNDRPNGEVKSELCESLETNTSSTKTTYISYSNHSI
row,Structure (SMILES),z-score
1,N#C/C(=C\Nc1ccccc1SC(F)(F)F)c1nc(-c2ccc(Cl)cc2)cs1,-0.248
2,COC(=O)CSc1nc2ncccc2[nH]1,2.69
3,CCOC(=O)C1=C(C)N(C2CCCCC2)C(=O)C1,-0.101
4,CCOc1cc(C)nc(Oc2ccc(=O)[nH]n2)n1,0.324
5,CCc1ccc(/C=C/C(=O)c2c(C)cc(C)[nH]c2=O)cc1,-0.106
6,COc1ccc(NC(=O)C(NC(C)=O)C(=O)NCc2ccc(F)cc2)cc1 (stereo unspecified),-0.0758
7,CCCCN(CCCC)C(=O)c1ccccc1NC(=O)CN1C(=O)c2ccccc2C1=O,-0.366
8,CC(=O)Nc1nc(-c2ccc(Cl)cc2)nc(C)c1C(C)=O,-0.063
9,CCOC(=O)c1cnc2c(ccc3ccccc32)c1NCCO,-1.92
10,COc1cccc(Nc2nc3ccccc3nc2-n2nc(C)cc2C)c1,-0.0398
11,CC(=O)Nc1ccc(S(=O)(=O)NCCc2ccc(S(N)(=O)=O)cc2)cc1,0.0666
12,Cc1cc(C=C(C#N)C#N)c(C)n1-c1ccccc1,-0.0466
13,CCOC(=O)c1nnn(-c2nonc2-n2cccc2)c1CN1CCC(C(=O)OCC)CC1,-0.278
14,CCc1ccc(C2CC(c3ccc(Cl)cc3)=NNC2=O)cc1 (stereo unspecified),-0.459
15,COc1cc(C)c(S(=O)(=O)n2nnc3ccccc32)cc1C,-0.262
16,CCCC1COC(Cn2cncn2)(c2ccc(C)cc2)O1 (stereo unspecified),active: 10.6
17,Cn1ncc2c(Nc3cccc(C(=O)O)c3)ncnc21,-0.385
18,COC(=O)c1cc(COc2ccc3c4c(c(=O)oc3c2)CCC4)c(C)o1,-0.288
19,Cc1ccc(S(=O)(=O)NCc2nc3ccccc3c(=O)n2N)cc1,0.355
20,Cc1ccc(N(CN2CCCC2=O)C(=O)c2ccc(OC(C)C)cc2)cc1,-0.471
21,CC(C)N1C(=O)S/C(=C/c2cccnc2)C1=O,-0.0572
22,C=CCSc1n[nH]c(-c2ccc(OCCCC)cc2)n1,-0.185
23,O=c1cc(NCCCO)c2ccccc2o1,0.133

row,Structure (SMILES),z-score
1,COc1ccc(Br)cc1CNc1ccc(S(N)(=O)=O)cc1,-0.284
2,Cc1c(NC(=O)C(C)OC(=O)CNC(=O)c2ccccc2)c(=O)n(-c2ccccc2)n1C (stereo unspecified),0.115
3,CCCOc1ncnc2c1[nH]c1ccccc12,-0.297
4,CCN(CC)S(=O)(=O)c1ccc(C(=O)NCCCN=C2NS(=O)(=O)c3ccccc32)cc1,-0.048
5,CSc1nc(-c2ccc(C)cc2)[nH]c1S(=O)(=O)c1ccccc1,0.126
6,COc1ccc2cc3cc(C(=O)NCC4CCCO4)oc3nc2c1 (stereo unspecified),0.71
7,COc1cc(NC(=O)Cc2nn(C)c(=O)c3ccccc23)cc(OC)c1,-0.162
8,N=C1C(c2ccccc2)=C(O)CN1c1cccc(S(N)(=O)=O)c1,-0.167
9,CC(O)Cc1nsc(NC(=O)c2cccs2)n1 (stereo unspecified),-0.153
10,CCOc1ccc2nc(NC(=O)C(NS(=O)(=O)c3cccc4nsnc34)C(C)C)sc2c1 (stereo unspecified),0.208
11,Cc1cc(C)nc(NC2=NCC(=O)N2c2ccc(F)c(Cl)c2)n1,-0.151
12,O=C(O)c1ccc(N/N=C/c2cccc(F)c2)cc1,0.873
13,CCC(C)n1c(SCc2ccccc2)nc2ccsc2c1=O (stereo unspecified),-0.114
14,Cc1cc(NC(=O)c2cc(C(C)C)on2)nn1Cc1ccc(Cl)cc1,0.132
15,CC1(C)CC(=O)C2=C(C1)N(c1ccccc1)C(N)=C(C#N)C2c1ccccc1 (stereo unspecified),-0.49
16,CCOc1ccc(C(=O)/C=C/c2cn(CN3CCN(C)CC3)c3ccccc23)cc1,-0.0815
17,CC(C)c1ccc(C(=O)NNC(=O)C2CC=CCC2C(=O)O)cc1 (stereo unspecified),0.0591
18,O=C(NCCCc1ccccc1)c1ccccc1,-0.192
19,COCc1c(C(=O)OCc2nc(N)nc(Nc3ccccc3C)n2)oc2ccccc12,-0.996
20,Brc1cc2c(cc1Cn1c(-c3cncs3)nc3ccccc31)OCO2,0.1
21,COC(=O)c1sc(NC(=O)CSc2nncs2)c(C(=O)OC)c1C,0.489
22,COc1ccc2c(C)cc(Sc3nnnn3-c3ccccc3)nc2c1,-0.336
23,O=C(CSc1nnc(SCc2ccccc2)s1)N/N=C/c1ccc(Cl)cc1Cl,-0.247

row,Structure (SMILES),z-score
1,Cc1ccc(C2N(c3ccc(F)cc3)C(=O)C3CCCN32)cc1 (stereo unspecified),0.214
2,O=C(c1cccnc1)N1CCN(C(=O)c2ccccc2F)CC1,0.923
3,COc1cccc(NC(=O)N2CCC(N3CCCCC3)CC2)c1,-0.892
4,COc1ccc(N2CCN(C(=O)C3CCCN(S(=O)(=O)c4cccc5cccnc45)C3)CC2)cc1 (stereo unspecified),0.828
5,CN(NC1CC(=O)N(c2ccccc2)C1=O)c1ccccc1 (stereo unspecified),-0.00236
6,Cc1ccc(-n2nc(C(=O)c3ccccc3)n3c(=O)c(Cc4ccccc4)nnc23)cc1,0.105
7,O=C(NCc1ccco1)c1ccc(N2CCCCC2)c([N+](=O)[O-])c1,-0.238
8,Cc1c(NC(=O)CN2C(=O)C3C4C=CC(C4)C3C2=O)c(=O)n(-c2ccccc2)n1C (stereo unspecified),-0.00489
9,O=C(CC1OC(=O)c2ccccc21)c1ccco1 (stereo unspecified),-0.219
10,O=C(O)CCc1ccc(-c2ccccc2)n1Cc1ccco1,-0.67
11,COc1ccc(Nc2oc(COc3ccccc3F)nc2C#N)cc1,-0.507
12,CCOC(=O)CSc1nc(C2CC2)cc(-c2ccc(Cl)cc2)c1C#N,0.684
13,O=C(Nc1cccc(C(F)(F)F)c1)c1cccnc1N1CCN(c2ccccc2)CC1,-0.134
14,CCOc1cc(C2NC(=O)NC(O)(C(F)(F)F)C2C(=O)c2ccccc2)ccc1OC (stereo unspecified),0.243
15,Cc1sc2nc(SCC(N)=O)n(C)c(=O)c2c1C,-0.177
16,Cc1cccc(OCc2nnc(SCC(=O)Nc3ccc(C)c(C)c3)o2)c1,0.728
17,CC(C)c1ccccc1NC(=O)c1cccc(NC(=O)c2ccccc2)c1,-0.797
18,CS/C(=C\[N+](=O)[O-])Nc1ccc(F)cc1,0.177
19,CCCCOc1ccc(-c2nc(/C=N/c3nccs3)c(O)o2)cc1,2.84
20,Cc1cccc(N(CC(O)CON=C2c3ccccc3-c3ccccc32)S(C)(=O)=O)c1 (stereo unspecified),0.773
21,CCOc1ccccc1NC(=O)CC1Nc2cc(C)c(C)cc2NC1=O (stereo unspecified),-0.142
22,Cc1ccc(OCC(=O)n2nc(C)cc2C)c(Br)c1,-0.701
23,O=C(NC1(C(F)(F)F)NC(=O)N(Cc2ccco2)C1=O)c1cccnc1 (stereo unspecified),-0.0725

row,Structure (SMILES),z-score
1,O=C(C1CCCO1)N1CCN(C(c2ccccc2)c2ccccc2)CC1 (stereo unspecified),0.482
2,CC(=O)c1cccc(N(CC(=O)Nc2ccc(F)cc2F)S(C)(=O)=O)c1,0.487
3,CCc1ccc(N2CC(C(=O)Nc3nnc(CC)s3)CC2=O)cc1 (stereo unspecified),0.169
4,CC(C)NC(NC(=O)Cc1ccccc1)C(Cl)(Cl)Cl (stereo unspecified),-0.12
5,CCOC(=O)N1CCC(NC(=O)c2cnn3cccnc23)CC1,-0.469
6,CCn1c(CC(=O)Nc2ccc(C)cc2)nnc1SCC(=O)Nc1nc(C)cs1,-0.514
7,Cc1cccc(OCc2nnc(SCc3cc(=O)[nH]c4ccccc34)n2-c2ccccc2)c1,-0.403
8,CC(C)(C)NC(=O)NC(=O)COC(=O)CNC(=O)c1cccc(F)c1,-1.54
9,CC(=O)c1cc(-c2ccccc2)n(CC(=O)Nc2ccc(C)c(C)c2)c1C,0.091
10,CCOC(=O)N1CCN(C(=O)CSc2nnc(COc3ccccc3)o2)CC1,-0.239
11,CCOc1c2ccc(C(=O)NCc3ccco3)cc2nn1CC,-0.189
12,O=C(C(=O)N1CC=C(c2ccccc2)CC1)c1c[nH]c2ccccc12,-0.198
13,CN(C)CCOc1ccccc1C(C)(C)C,0.0255
14,Cc1nn(-c2ccccc2)c(Cl)c1/C=N/Nc1ccc(Cl)c(C(=O)O)c1,-0.82
15,Cc1ccc(Oc2cc(N3CCOCC3)nc(-c3ccccc3)n2)cc1,-0.00509
16,CCOC(=O)C1=C(C)NC(=O)NC1c1ccc(OCC(N)=O)cc1 (stereo unspecified),-0.412
17,C/C=C/C=N/NC(=O)CN(c1ccc(Br)cc1)S(=O)(=O)c1ccccc1,-0.24
18,N=C1C(c2nc3ccccc3c(=O)[nH]2)=C(O)CN1c1ccccc1,0.297
19,COc1cc(C2Nc3cc(Cl)c(S(N)(=O)=O)cc3S(=O)(=O)N2)cc(OC)c1OC (stereo unspecified),-0.0667
20,COC(=O)c1ccc(NC(=O)C23CC4CC(C2)CC(n2cnc(Cl)n2)(C4)C3)cc1,-0.385
21,CSc1cc(-c2ccc(Cl)cc2)c(C(=O)NC(C)C)s1,0.153
22,CN(C)S(=O)(=O)n1ccnc1,-0.165
23,Cc1ccc(OCC(=O)N/N=C/c2cn(Cc3ccccc3)c3ccccc23)cc1,-0.188

row,Structure (SMILES),z-score
1,O=C1c2ccccc2C(=O)C12OC(c1ccccc1)C1(C(=O)c3ccccc3C1=O)C2c1ccc([N+](=O)[O-])cc1 (stereo unspecified),-0.669
2,Cc1ccccc1NC(=O)C1CCCN(S(=O)(=O)c2cccc3cccnc23)C1 (stereo unspecified),-0.135
3,COc1ccccc1CNC(=O)c1ccc(OCc2c(C)noc2C)c(OC)c1,-0.41
4,Clc1ccc(COn2c(-c3ccc(Cl)cc3)nc3ccccc32)cc1,-0.0881
5,CC1CC(C)CN(C(=O)Cn2c(=O)n(CCCCC(=O)NCc3ccco3)c(=O)c3ccccc32)C1 (stereo unspecified),-0.706
6,COCCn1c(SCC(=O)Nc2cc(C(C)(C)C)nn2-c2ccccc2)nc2ccccc2c1=O,-0.146
7,CCN(Cc1cc2cc(OC)ccc2[nH]c1=O)C(=O)c1ccncc1,0.126
8,O=C(Oc1c(Cl)cc(Cl)c2ccccc12)N1CCCC1,0.469
9,COC(=O)C1CCN(Cc2ccc(C)cc2)CC1,-0.135
10,Cc1ccc(CN2C(=O)CCC2C(=O)NCCN2CCOCC2)cc1 (stereo unspecified),0.553
11,COC(=O)c1ccccc1NC(=O)Cn1nc(C(F)(F)F)c2c1CCC2,-0.437
12,O=C1NC(c2ccc(Br)cc2)Nc2sc3c(c21)CCC3 (stereo unspecified),0.88
13,CN(C)/C=N/c1sc2c(c1C#N)CCC2,0.085
14,Cc1ccccc1OCCn1cc(/C=C(\C#N)C(=O)NCc2ccco2)c2ccccc21,0.191
15,CC(=O)c1ccc(NC(=O)CSCC(=O)Nc2ccc3ccccc3c2)cc1,-0.558
16,O=C(CN1CCCC1)Nc1ccc(NC(=O)Nc2ccccc2Cl)cc1,0.133
17,Clc1ccc(/C=N/Nc2nnc(Cl)c3ccccc23)cc1,0.242
18,OCCCN1CCN(CCCOc2ccccc2-c2ccccc2)CC1,-0.686
19,CC(C)CNC(=O)CCCc1ccccc1,-0.288
